# Results are given in words; binding and its absence hold for the method and conditions named. In cells and extracts the contact can be indirect. Some binding calls cover weakened binding; strength is not graded here. For some assays here: Where a sequence is shown, tags or fusion partners need not be part of it.
# By UniProt entry, the sequences of proteins in these tests, tags left out. Where a name states a change or a piece, a line headed by the entry shows the natural chain unless it says otherwise. Residues count along the entry.
# UniProt Q9NRC8: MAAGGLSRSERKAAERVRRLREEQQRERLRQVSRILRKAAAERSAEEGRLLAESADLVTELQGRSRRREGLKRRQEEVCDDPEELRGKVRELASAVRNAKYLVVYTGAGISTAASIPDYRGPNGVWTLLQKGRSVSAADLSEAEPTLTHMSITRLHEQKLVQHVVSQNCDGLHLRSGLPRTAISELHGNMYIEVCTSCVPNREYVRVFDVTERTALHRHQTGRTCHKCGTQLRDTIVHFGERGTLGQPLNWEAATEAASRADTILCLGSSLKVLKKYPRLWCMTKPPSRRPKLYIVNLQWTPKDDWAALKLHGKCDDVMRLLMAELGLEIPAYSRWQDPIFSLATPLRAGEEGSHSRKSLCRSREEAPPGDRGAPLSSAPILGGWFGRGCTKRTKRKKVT
# Flag-SIRT7 ΔC (N-terminus with CC region, 1-330): residues 1-330 of Q9NRC8
# Flag-SIRT7 ΔN (C-terminus with CC region, 91-400): residues 91-400 of Q9NRC8
# Flag-SIRT7 catalytic core region (CC: 91-330): residues 91-330 of Q9NRC8
# T1: HA-OGT^TPR (human) (UniProt O15294)
# T1 sequence: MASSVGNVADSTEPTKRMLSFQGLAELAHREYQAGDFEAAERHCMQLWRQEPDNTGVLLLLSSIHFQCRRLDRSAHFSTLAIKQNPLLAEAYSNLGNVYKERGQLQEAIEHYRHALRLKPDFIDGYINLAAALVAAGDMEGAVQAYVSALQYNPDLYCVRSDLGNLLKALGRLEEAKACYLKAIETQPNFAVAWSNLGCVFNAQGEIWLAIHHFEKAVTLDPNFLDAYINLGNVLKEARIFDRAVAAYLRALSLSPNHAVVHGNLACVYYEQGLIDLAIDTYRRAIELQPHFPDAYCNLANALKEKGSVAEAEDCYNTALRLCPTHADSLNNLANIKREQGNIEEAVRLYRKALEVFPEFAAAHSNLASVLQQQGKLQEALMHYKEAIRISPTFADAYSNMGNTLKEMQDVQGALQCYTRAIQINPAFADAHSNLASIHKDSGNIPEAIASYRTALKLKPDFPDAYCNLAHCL
# What was measured:
# HA-OGT^TPR (human) = target: T1, HA-OGT^TPR (human); assay: co-IP; HEK293T cells transfected with HA-OGT and Flag-SIRT7 constructs; Pierce IP buffer; immunomagnetic beads coupled with anti-Flag/anti-HA antibody; washed with TBST (150 mM NaCl, pH 7.5); western blot
# [1] = target: Flag-SIRT7 catalytic core region (CC: 91-330) (UniProt Q9NRC8); assay: as above
# Flag-SIRT7 = Flag-SIRT7 (UniProt Q9NRC8); assay: as above
# [2] = target: Flag-SIRT7 ΔN (C-terminus with CC region, 91-400) (UniProt Q9NRC8); assay: as above
# [3] = target: Flag-SIRT7 ΔC (N-terminus with CC region, 1-330) (UniProt Q9NRC8); assay: as above
# [4] = target: endogenous SIRT7 (PANC-1 and MiaPaCa-2 cells) (human (endogenous in PANC-1 and MiaPaCa-2)) (UniProt Q9NRC8); assay: co-IP; endogenous SIRT7 and OGT in PANC-1 and MiaPaCa-2 cells; antibodies with protein A/G agarose; western blot
# [5] = target: SIRT7 in PDAC patient specimens (human (endogenous in PDAC patient tissue)) (UniProt Q9NRC8); assay: proximity ligation; Duolink PLA, bright field, on PDAC patient tissue sections with anti-SIRT7 and anti-OGT antibodies
molecule,measurement,setting,value
Flag-SIRT7 (from UniProt Q9NRC8 1-400),binding,HA-OGT^TPR (human),binds
"HA-OGT (enzyme, UniProt O15294 1-1046) MASSVGNVADSTEPTKRMLSFQGLAELAHREYQAGDFEAAERHCMQLWRQEPDNTGVLLLLSSIHFQCRRLDRSAHFSTLAIKQNPLLAEAYSNLGNVYKERGQLQEAIEHYRHALRLKPDFIDGYINLAAALVAAGDMEGAVQAYVSALQYNPDLYCVRSDLGNLLKALGRLEEAKACYLKAIETQPNFAVAWSNLGCVFNAQGEIWLAIHHFEKAVTLDPNFLDAYINLGNVLKEARIFDRAVAAYLRALSLSPNHAVVHGNLACVYYEQGLIDLAIDTYRRAIELQPHFPDAYCNLANALKEKGSVAEAEDCYNTALRLCPTHADSLNNLANIKREQGNIEEAVRLYRKALEVFPEFAAAHSNLASVLQQQGKLQEALMHYKEAIRISPTFADAYSNMGNTLKEMQDVQGALQCYTRAIQINPAFADAHSNLASIHKDSGNIPEAIASYRTALKLKPDFPDAYCNLAHCLQIVCDWTDYDERMKKLVSIVADQLEKNRLPSVHPHHSMLYPLSHGFRKAIAERHGNLCLDKINVLHKPPYEHPKDLKLSDGRLRVGYVSSDFGNHPTSHLMQSIPGMHNPDKFEVFCYALSPDDGTNFRVKVMAEANHFIDLSQIPCNGKAADRIHQDGIHILVNMNGYTKGARNELFALRPAPIQAMWLGYPGTSGALFMDYIITDQETSPAEVAEQYSEKLAYMPHTFFIGDHANMFPHLKKKAVIDFKSNGHIYDNRIVLNGIDLKAFLDSLPDVKIVKMKCPDGGDNADSSNTALNMPVIPMNTIAEAVIEMINRGQIQITINGFSISNGLATTQINNKAATGEEVPRTIIVTTRSQYGLPEDAIVYCNFNQLYKIDPSTLQMWANILKRVPNSVLWLLRFPAVGEPNIQQYAQNMGLPQNRIIFSPVAPKEEHVRRGQLADVCLDTPLCNGHTTGMDVLWAGTPMVTMPGETLASRVAASQLTCLGCLELIAKNRQEYEDIAVKLGTDLEYLKKVRGKVWKQRISSPLFNTKQYTMELERLYLQMWEHYAAGNKPDHMIKPVEVTESA",binding,[1],no binding
same,binding,Flag-SIRT7,binds
same,binding,[2],binds
same,binding,[3],no binding
"HA-OGT-908A (enzyme, UniProt O15294 1-1046) MASSVGNVADSTEPTKRMLSFQGLAELAHREYQAGDFEAAERHCMQLWRQEPDNTGVLLLLSSIHFQCRRLDRSAHFSTLAIKQNPLLAEAYSNLGNVYKERGQLQEAIEHYRHALRLKPDFIDGYINLAAALVAAGDMEGAVQAYVSALQYNPDLYCVRSDLGNLLKALGRLEEAKACYLKAIETQPNFAVAWSNLGCVFNAQGEIWLAIHHFEKAVTLDPNFLDAYINLGNVLKEARIFDRAVAAYLRALSLSPNHAVVHGNLACVYYEQGLIDLAIDTYRRAIELQPHFPDAYCNLANALKEKGSVAEAEDCYNTALRLCPTHADSLNNLANIKREQGNIEEAVRLYRKALEVFPEFAAAHSNLASVLQQQGKLQEALMHYKEAIRISPTFADAYSNMGNTLKEMQDVQGALQCYTRAIQINPAFADAHSNLASIHKDSGNIPEAIASYRTALKLKPDFPDAYCNLAHCLQIVCDWTDYDERMKKLVSIVADQLEKNRLPSVHPHHSMLYPLSHGFRKAIAERHGNLCLDKINVLHKPPYEHPKDLKLSDGRLRVGYVSSDFGNHPTSHLMQSIPGMHNPDKFEVFCYALSPDDGTNFRVKVMAEANHFIDLSQIPCNGKAADRIHQDGIHILVNMNGYTKGARNELFALRPAPIQAMWLGYPGTSGALFMDYIITDQETSPAEVAEQYSEKLAYMPHTFFIGDHANMFPHLKKKAVIDFKSNGHIYDNRIVLNGIDLKAFLDSLPDVKIVKMKCPDGGDNADSSNTALNMPVIPMNTIAEAVIEMINRGQIQITINGFSISNGLATTQINNKAATGEEVPRTIIVTTRSQYGLPEDAIVYCNFNQLYKIDPSTLQMWANILKRVPNSVLWLLRFPAVGEPNIQQYAQNMGLPQNRIIFSPVAPAEEHVRRGQLADVCLDTPLCNGHTTGMDVLWAGTPMVTMPGETLASRVAASQLTCLGCLELIAKNRQEYEDIAVKLGTDLEYLKKVRGKVWKQRISSPLFNTKQYTMELERLYLQMWEHYAAGNKPDHMIKPVEVTESA",binding,Flag-SIRT7,binds
"endogenous OGT (PANC-1 and MiaPaCa-2 cells) (enzyme, UniProt O15294 1-1046) MASSVGNVADSTEPTKRMLSFQGLAELAHREYQAGDFEAAERHCMQLWRQEPDNTGVLLLLSSIHFQCRRLDRSAHFSTLAIKQNPLLAEAYSNLGNVYKERGQLQEAIEHYRHALRLKPDFIDGYINLAAALVAAGDMEGAVQAYVSALQYNPDLYCVRSDLGNLLKALGRLEEAKACYLKAIETQPNFAVAWSNLGCVFNAQGEIWLAIHHFEKAVTLDPNFLDAYINLGNVLKEARIFDRAVAAYLRALSLSPNHAVVHGNLACVYYEQGLIDLAIDTYRRAIELQPHFPDAYCNLANALKEKGSVAEAEDCYNTALRLCPTHADSLNNLANIKREQGNIEEAVRLYRKALEVFPEFAAAHSNLASVLQQQGKLQEALMHYKEAIRISPTFADAYSNMGNTLKEMQDVQGALQCYTRAIQINPAFADAHSNLASIHKDSGNIPEAIASYRTALKLKPDFPDAYCNLAHCLQIVCDWTDYDERMKKLVSIVADQLEKNRLPSVHPHHSMLYPLSHGFRKAIAERHGNLCLDKINVLHKPPYEHPKDLKLSDGRLRVGYVSSDFGNHPTSHLMQSIPGMHNPDKFEVFCYALSPDDGTNFRVKVMAEANHFIDLSQIPCNGKAADRIHQDGIHILVNMNGYTKGARNELFALRPAPIQAMWLGYPGTSGALFMDYIITDQETSPAEVAEQYSEKLAYMPHTFFIGDHANMFPHLKKKAVIDFKSNGHIYDNRIVLNGIDLKAFLDSLPDVKIVKMKCPDGGDNADSSNTALNMPVIPMNTIAEAVIEMINRGQIQITINGFSISNGLATTQINNKAATGEEVPRTIIVTTRSQYGLPEDAIVYCNFNQLYKIDPSTLQMWANILKRVPNSVLWLLRFPAVGEPNIQQYAQNMGLPQNRIIFSPVAPKEEHVRRGQLADVCLDTPLCNGHTTGMDVLWAGTPMVTMPGETLASRVAASQLTCLGCLELIAKNRQEYEDIAVKLGTDLEYLKKVRGKVWKQRISSPLFNTKQYTMELERLYLQMWEHYAAGNKPDHMIKPVEVTESA",binding,[4],binds
"OGT in PDAC patient specimens (enzyme, UniProt O15294 1-1046) MASSVGNVADSTEPTKRMLSFQGLAELAHREYQAGDFEAAERHCMQLWRQEPDNTGVLLLLSSIHFQCRRLDRSAHFSTLAIKQNPLLAEAYSNLGNVYKERGQLQEAIEHYRHALRLKPDFIDGYINLAAALVAAGDMEGAVQAYVSALQYNPDLYCVRSDLGNLLKALGRLEEAKACYLKAIETQPNFAVAWSNLGCVFNAQGEIWLAIHHFEKAVTLDPNFLDAYINLGNVLKEARIFDRAVAAYLRALSLSPNHAVVHGNLACVYYEQGLIDLAIDTYRRAIELQPHFPDAYCNLANALKEKGSVAEAEDCYNTALRLCPTHADSLNNLANIKREQGNIEEAVRLYRKALEVFPEFAAAHSNLASVLQQQGKLQEALMHYKEAIRISPTFADAYSNMGNTLKEMQDVQGALQCYTRAIQINPAFADAHSNLASIHKDSGNIPEAIASYRTALKLKPDFPDAYCNLAHCLQIVCDWTDYDERMKKLVSIVADQLEKNRLPSVHPHHSMLYPLSHGFRKAIAERHGNLCLDKINVLHKPPYEHPKDLKLSDGRLRVGYVSSDFGNHPTSHLMQSIPGMHNPDKFEVFCYALSPDDGTNFRVKVMAEANHFIDLSQIPCNGKAADRIHQDGIHILVNMNGYTKGARNELFALRPAPIQAMWLGYPGTSGALFMDYIITDQETSPAEVAEQYSEKLAYMPHTFFIGDHANMFPHLKKKAVIDFKSNGHIYDNRIVLNGIDLKAFLDSLPDVKIVKMKCPDGGDNADSSNTALNMPVIPMNTIAEAVIEMINRGQIQITINGFSISNGLATTQINNKAATGEEVPRTIIVTTRSQYGLPEDAIVYCNFNQLYKIDPSTLQMWANILKRVPNSVLWLLRFPAVGEPNIQQYAQNMGLPQNRIIFSPVAPKEEHVRRGQLADVCLDTPLCNGHTTGMDVLWAGTPMVTMPGETLASRVAASQLTCLGCLELIAKNRQEYEDIAVKLGTDLEYLKKVRGKVWKQRISSPLFNTKQYTMELERLYLQMWEHYAAGNKPDHMIKPVEVTESA",binding,[5],binds

# — publication PMC9525610
